AC50 data for 28 compounds are collected here from PubChem BioAssay (NCATS).

As usually defined, the AC50 is the midpoint of the concentration-response curve, whichever way the signal moves.

The other results are listed elsewhere or left out. The main result of the screen is listed elsewhere. These columns were measured beside it and carry no call. The list favours compounds with an active or inconclusive main result. Potencies come from curve fits of mixed quality, noted in brackets.
Tags describe the fitted curve by direction and shape.

The test in a line: qHTS Assay for Lipid Storage Modulators (AID 1519). The settings on record: Drosophila S3 cells, BODIPY lipid droplet/cell ratio, laser cytometry; measured here: lipid (BODIPY) channel AC50; cells loaded with oleic acid. An outline of the steps: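 Cells seeded at 5,000 per well were treated with compounds over a concentration series and loaded with oleic acid (400 uM, as added). Lipid droplet fluorescence (488 nm excitation, 500-530 nm channel) was read by laser-scanning cytometry and normalized to 20 uM Triacsin C.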
On to `CC(C)=CCCC1(C)C=Cc2c(O)c3c(c(CC=C(C)C)c2O1)OC12C(CC4CC1C(C)(C)OC2(C/C=C(/C)C(=O)O)C4O)C3=O` (stereo not drawn), for which the AC50 is 15.8 µM [falling, partial curve]. As to `O=C(NC(=O)c1c(F)cccc1F)Nc1ccc(Cl)cc1`, the AC50 was 3.16 µM [rising, partial curve, poor fit].

With `COc1ccc2c(c1O)-c1c(OC)c(OC)cc3c1[C@@H](C2)N(C)CC3`, the AC50 was 39.8 µM [rising, single point]. On to `CNNC`, for which the AC50 was 0.0355 µM [rising, full curve]. For the compound `O=c1cccc2n1CC1CNCC2C1` (stereo not drawn), the AC50 is 0.501 µM [rising, full curve, poor fit]. As to `CNC(C)C1CC[C@H](N)[C@@H](OC2C(N)C[C@H](N)[C@@H](OC3OC[C@](C)(O)C(NC)[C@H]3O)C2O)O1` (stereo partly drawn), the AC50 was 39.8 µM [rising, single point]. Consider `CC(=O)Nc1cc([As](=O)(O)O)ccc1O`, for which the AC50 was 35.5 µM [rising, single point]. `O=C(c1ccco1)N1CCC2(CC1)CN(Cc1ccncc1)C2`: the AC50 is 5.01 µM [rising, partial curve, poor fit]. Turning to `C[N+]1(C)C2CC(OC(=O)C(CO)c3ccccc3)CC1C1OC12` (stereo not drawn), the AC50 is 12.6 µM [rising, partial curve]. The figure for `COc1ccc(NC(=O)N2CC[C@@]3(CCCN(C(=O)Oc4ccccc4)C3)C2)cc1` is 0.0355 µM [rising, full curve, poor fit]; for `CC(=O)Oc1ccc(/C=C/c2cc(OC(C)=O)cc(OC(C)=O)c2)cc1` it is 8.91 µM [rising, single point]; for `CC[C@@]1(O)CC(O)c2c(cc3c(c2O)C(=O)c2c(O)ccc(O)c2C3=O)C1C(=O)OC` (stereo partly drawn) it is 31.6 µM [falling, single point].

As for `C/C=C1/C[C@@H](C)[C@](O)(CO)C(=O)OCC2=CCN3CC[C@@H](OC1=O)C23` (stereo partly drawn), the AC50 was 35.5 µM [rising, single point].

Turning to `O=C(Oc1ccccc1)N1CCC[C@@]2(CCN(Cc3cc(C(F)(F)F)cc(C(F)(F)F)c3)C2)C1`, the AC50 is 0.141 µM [rising, full curve, poor fit]. With `CC1CC(Cl)CCC1C(=O)OC(C)(C)C` (stereo not drawn), the AC50 was 25.1 µM [rising, partial curve, poor fit]. As for `CC(=O)OCC1=C(C(=O)O)N2C(=O)C(NC(=O)CCCC(N)C(=O)O)C2SC1` (stereo not drawn), the AC50 was 39.8 µM [rising, single point]. The figure for `C[C@H]1CCCC=CC2C[C@H](O)C[C@@H]2[C@H](O)/C=C\C(=O)O1` (stereo partly drawn) is 7.08 µM [rising, full curve, poor fit]; for `CCC1C2CC3C4N(C)c5ccccc5[C@]45CC(C2C5O)N3C1O` (stereo partly drawn) it is 28.2 µM [rising, single point]. With `COc1ccc(C(=O)O)cc1OC`, the AC50 was 39.8 µM [rising, single point]. The figure for `CC[C@@H]1CN2CCc3cc(OC)c(OC)cc3[C@H]2C[C@@H]1C[C@H]1NCCc2cc(OC)c(OC)cc21` is 2.51 µM [falling, partial curve]; for `COc1ccc(CC2NC[C@H](O)[C@H]2OC(C)=O)cc1` (stereo partly drawn) it is 3.16 µM [falling, full curve]; for `CC(=O)Oc1ccc(Cl)c2cccnc12` it is 14.1 µM [falling, partial curve]. Regarding `CN(CCC(N)CC(=O)NC1C=CC(n2ccc(N)nc2=O)OC1C(=O)O)C(=N)N` (stereo not drawn), the AC50 was 4.47 µM [rising, partial curve]. Consider `O=[N+]([O-])c1ccc(O)c([N+](=O)[O-])c1`, for which the AC50 is 25.1 µM [falling, single point]. `CCCCC/C=C\C/C=C\C/C=C\C/C=C\CCCC(=O)Nc1ccc(O)cc1`: the AC50 is 39.8 µM [rising, single point]. In the case of `C[C@H]1O[C@H](O[C@H]2[C@H](O)[C@@H](O)[C@@H](O)[C@H](O)[C@@H]2O)[C@@H](N)C[C@@H]1NC(=N)C(=O)O`, the AC50 is 39.8 µM [rising, partial curve]. For the compound `CC(C)CC1C(=O)N2CCCC2C2(O)O[C@@](NC(=O)C3C=C4c5cccc6[nH]c(Br)c(c56)CC4N(C)C3)(C(C)C)C(=O)N12` (stereo partly drawn), the AC50 was 20 µM [falling, single point]. The figure for `CN1CCN(C(=O)OC2c3nccnc3C(=O)N2c2ccc(Cl)cn2)CC1` (stereo not drawn) is 5.01 µM [rising, full curve].
